# Results reported in PubChem BioAssay AID1030 (National Center for Advancing Translational Sciences (NCATS), 2008).
# Out of some 220,000 compounds screened, about 16,000 (7.3%) were called active. Inconclusive means that the source gave no clear call. Such entries were picked first, then a sample of the others. The call rests on the fitted dose curve; in most records, active means well fitted inhibition curve with a large enough effect (not every such curve was filed as active); inconclusive means small, poorly fitted or top-dose-only effect, or another doubt; inactive means no such curve, though single readings can be large or run the other way. No potency is given beside an inconclusive call; the fits are too rough.
# Biological target: Aldehyde dehydrogenase 1A1 (Homo sapiens) (UniProt P00352)
# Assay: qHTS Assay for Inhibitors of Aldehyde Dehydrogenase 1 (ALDH1A1)
# Settings: Purified ALDH1A1, NADH fluorescence, propionaldehyde substrate; series mostly up to 75.3 µM
# Potency means the concentration at half of the fitted maximal effect; tags describe the fitted curve by direction and shape.
# Sequence of UniProt P00352 (P00352 whole entry, looked up): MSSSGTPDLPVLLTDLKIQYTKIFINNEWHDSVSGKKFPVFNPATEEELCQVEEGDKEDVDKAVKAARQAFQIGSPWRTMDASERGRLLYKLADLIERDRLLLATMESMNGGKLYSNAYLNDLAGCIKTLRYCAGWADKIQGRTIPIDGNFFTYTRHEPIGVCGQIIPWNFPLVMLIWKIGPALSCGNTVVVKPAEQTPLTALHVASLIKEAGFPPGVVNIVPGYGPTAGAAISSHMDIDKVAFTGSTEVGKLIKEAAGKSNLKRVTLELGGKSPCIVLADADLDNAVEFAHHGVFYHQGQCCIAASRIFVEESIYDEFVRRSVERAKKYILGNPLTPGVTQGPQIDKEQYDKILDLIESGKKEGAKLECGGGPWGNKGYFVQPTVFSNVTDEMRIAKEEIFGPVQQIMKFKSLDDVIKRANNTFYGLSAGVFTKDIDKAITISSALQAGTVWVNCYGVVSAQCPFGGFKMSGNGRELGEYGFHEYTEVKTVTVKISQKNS
row,SMILES,Potency
1,S=C(NCCc1c[nH]c2ccccc12)NC1CC1,inactive
2,COc1cccc(Nc2ncc3nc(C)c(=O)n(CCc4ccccc4)c3n2)c1,"inconclusive [inhibitor, partial curve]"
3,CCN(CC(=O)NC(c1ccccc1)c1ccccc1)Cc1nc2ccccc2c(=O)[nH]1,active: 17.8 µM
4,COCCNC(=O)C/C(C)=N/NC(=O)C(=O)NC1CCCCC1,inactive
5,COc1ccc(S(=O)(=O)Nc2ccc(S(=O)(=O)N3CCOCC3)cc2)cc1,active: 4.47 µM
6,CCCCN(c1ccccc1)S(=O)(=O)c1ccc2c(c1)CCN2C(=O)CCC(=O)O,inactive
7,COc1ccc(NS(=O)(=O)c2ccc(-n3nnc4ccccc43)c([N+](=O)[O-])c2)cc1,"inconclusive [inhibitor, single point]"
8,CC(C)(O)C(=O)NNC(=S)Nc1cccc(C(F)(F)F)c1,"inconclusive [inhibitor, single point]"
9,COc1ccccc1NC(=S)NCCc1ccc(Cl)cc1,"inconclusive [inhibitor, partial curve]"
10,Cc1nn(CCOc2ccccc2)c(=O)n1-c1c(F)cccc1F,inactive
11,Cc1ccc(CN(c2ccc(C(=O)Nc3ccc4c(c3)OCO4)cc2)S(C)(=O)=O)cc1,"inconclusive [inhibitor, full curve]"
12,Cn1cc(Cl)c(C(=O)N/N=C/c2ccc(OS(=O)(=O)c3ccccc3)cc2)n1,"inconclusive [inhibitor, partial curve]"
13,Fc1ccc(C2CC(c3cccs3)=NN2c2ccccc2)cc1 (configuration not stated),"inconclusive [inhibitor, partial curve]"
14,Cc1ccc(-c2nc(-c3ccc(Cl)cc3)sc2CC(=O)O)c(C)c1,"inconclusive [inhibitor, single point]"
15,COc1cccc(C(=O)NC2CC3CCCC(C2)N3CC(=O)Nc2ccccc2)c1 (configuration not stated),"inconclusive [inhibitor, single point]"
16,COc1ccc(S(=O)(=O)N(C)c2c(C)n(C)n(-c3ccccc3)c2=O)cc1OC,"inconclusive [inhibitor, single point]"
17,COc1ccccc1CNc1cc(-c2ccccc2C)ncn1,inactive
18,CCN(CC)CCCCCOc1ccccc1OC,active: 0.0282 µM
19,O=C(Nc1ccc(N2CCOCC2)nc1)c1ccccc1Cl,inactive
20,Cc1cc(/C=C2\NC(=S)NC2=O)c(C)n1-c1cccnc1,inactive
21,O=C1C2C3C=CC(C4CC34)C2C(=O)N1/N=C/c1ccc([N+](=O)[O-])o1 (configuration not stated),active: 3.16 µM
22,CN(C)c1oc(-c2ccccc2Cl)nc1C#N,"inconclusive [inhibitor, single point]"
23,CCC(Oc1ccccc1)C(=O)Nc1ccc(S(=O)(=O)Nc2cnc3ccccc3n2)cc1 (configuration not stated),"inconclusive [inhibitor, single point]"
24,COc1ccc(NC(=S)Nc2ccc(OCc3ccccc3)cc2)c(OC)c1,active: 10 µM
25,Cc1cccc2[nH]c(SCC(=O)N3CCOCC3)nc12,inactive
26,CC(C)Sc1ncc(S(=O)(=O)c2ccccc2)c(=O)[nH]1,inactive

row,SMILES,Potency
1,CCOC(=O)c1ccc(NC(=O)CSc2nnc(C3CCCCC3)n2C)cc1,"inconclusive [inhibitor, single point]"
2,COc1ccc2cc(C(=O)N/N=C/c3sc4ccccc4c3O)ccc2c1,inactive
3,CS(=O)(=O)Cc1cc(Sc2ccccc2)nc(-c2ccncc2)n1,active: 11.2 µM
4,Cc1ccc(N=C2NC(=O)/C(=C/C=C/c3ccco3)S2)cc1,active: 4.47 µM
5,Cc1ccc2nc(NC(=O)Cc3cccs3)sc2c1,active: 7.94 µM
6,CC(=O)Nc1ncnc2c1c(-c1ccc(Cl)cc1)nn2C(C)(C)C,"inconclusive [inhibitor, partial curve]"
7,Cc1cccc(C)c1OCC(O)CN1CCC(CN2C(=O)c3cccc4cccc(c34)C2=O)CC1 (configuration not stated),"inconclusive [inhibitor, partial curve]"
8,COc1ccc(C(=O)OCC(=O)NCCCc2ccccc2)cc1[N+](=O)[O-],"inconclusive [inhibitor, partial curve]"
9,Cn1cc2c(=O)n(/N=C/c3ccccc3)cnc2n1,inactive
10,Fc1cccc2sc(Nc3nnc(-c4ccco4)o3)nc12,"inconclusive [inhibitor, partial curve]"
11,CCCCN(CC)C(=O)/C=C/c1cccc([N+](=O)[O-])c1,"inconclusive [inhibitor, partial curve]"
12,COc1ccc(/C=C2/CCOC2=O)cc1,inactive
13,N#Cc1c(NC(=O)CSc2nc3ccccc3c(=O)n2Cc2ccco2)sc2c1CCCC2,active: 25.1 µM
14,O=C(Nc1nnc(SCC(=O)N2CCCc3ccccc32)s1)c1ccc2ccccc2c1,"inconclusive [inhibitor, single point]"
15,COc1ccccc1CN(C)C(C)C(=O)Nc1cccc(C(C)=O)c1 (configuration not stated),inactive
16,O=C1CC[C@@H](CN(Cc2ccccn2)Cc2nc(Cc3cccc(C(F)(F)F)c3)no2)N1,inactive
17,COC(=O)c1ccc(NS(=O)(=O)c2cccc3cccnc23)cc1,inactive
18,COCCCNC(=S)N(Cc1ccccc1)Cc1nc2ccccc2c(=O)[nH]1,"inconclusive [inhibitor, single point]"
19,O=C(CSc1ccc(-c2ccccn2)nn1)N1CCCCC1,"inconclusive [inhibitor, single point]"
20,O=C1c2ccccc2C(=O)N1c1ccc(Cl)cc1,inactive
21,Cc1cc(C=O)c(C)n1-c1ccc(N2CCOCC2)cc1,active: 3.16 µM
22,CC(C)(C)CC(C)(C)c1ccc(O)c(CN2CCN(CCC#N)CC2)c1,inactive
23,COc1cc(C(=O)N2CCC(O)(c3ccccc3)CC2)cc(OC)c1OC,inactive
24,Cc1nnc(NC(=O)c2sc3ccccc3c2Cl)s1,inactive
25,Cc1ccc(-n2c(C)cc(/C=N/NC(=O)c3ccncc3)c2C)cc1,"inconclusive [inhibitor, single point]"
26,Cc1cc(C(=O)COC(=O)c2cccs2)c(C)n1-c1c(C)n(C)n(-c2ccccc2)c1=O,active: 20 µM

row,SMILES,Potency
1,CC1=CC(C)=Nc2ccccc2N1,"inconclusive [inhibitor, single point]"
2,COc1cccc(/C=C/C(=O)Nc2ccc3nc4n(c(=O)c3c2)CCCC4)c1OC,"inconclusive [inhibitor, partial curve]"
3,CCCCCC(=O)NC(=S)NNC(=O)CC,"inconclusive [inhibitor, single point]"
4,Cc1ccc(C(C(=O)NC2CCCC2)N(Cc2ccc(F)cc2)C(=O)c2csnn2)o1 (configuration not stated),active: 14.1 µM
5,CCOC(=O)CSc1nc(-c2ccccc2)cc(C(F)(F)F)n1,"inconclusive [inhibitor, single point]"
6,COc1cc(NC(=O)CN2CCN(c3ccccc3F)CC2)c(C)cc1[N+](=O)[O-],inactive
7,O=C(Nn1c(O)c(C=C2N=c3ccccc3=N2)sc1=S)c1cccc(Cl)c1,inactive
8,CC(C)c1ccc(C(C(=O)NC2CCCCC2)N(C(=O)c2ccccn2)c2cccnc2)cc1 (configuration not stated),"inconclusive [inhibitor, single point]"
9,O=[N+]([O-])c1ccc(-n2cnc3ccccc32)c([N+](=O)[O-])c1,"inconclusive [inhibitor, single point]"
10,O=S(=O)(c1ccc(Cl)nc1)N(Cc1ccccc1)Cc1ccccc1,"inconclusive [inhibitor, single point]"
11,Cc1c(-n2c(SCC(=O)O)nnc2-c2ccccc2Cl)c(=O)n(-c2ccccc2)n1C,inactive
12,N#CCCn1cc(C(N)=O)c(-c2cccs2)n1,inactive
13,CN(C)c1nc(-c2cccc(C#N)c2)nc2ccccc12,"inconclusive [inhibitor, partial curve]"
14,COC(=O)c1cc(=O)n(Cc2ccc(OC)c(OC)c2)c(=Nc2ccc(F)cc2)s1,inactive
15,Nc1[nH]c(=S)nc2nc(-c3ccccc3)c(-c3ccccc3)nc12,"inconclusive [inhibitor, partial curve]"
16,CC1(C)CC(=O)C2=C(C1)OC1=C(C(=O)CC(C)(C)C1)C2c1ccc(O)cc1O,active: 0.891 µM
17,CCCN1CC=C2C(C#N)=C(N)C(C#N)(C#N)C(c3cc(OC)ccc3OC)C2C1 (configuration not stated),"inconclusive [inhibitor, partial curve]"
18,COc1ccc(O)c(C(=O)CC(=O)c2ccccc2)c1,"inconclusive [inhibitor, partial curve]"
19,COc1ccc(-n2c(SC)nc(O)c(Cc3ccccc3)c2=O)cc1,"inconclusive [inhibitor, single point]"
20,O=C(Nc1ccc(N2CCOCC2)cc1)Nc1cnsn1,"inconclusive [inhibitor, single point]"
21,C=CCN1C(=O)C(Cc2cccc(Cl)c2)S/C1=N/N=C/c1ccco1 (configuration not stated),"inconclusive [inhibitor, partial curve]"
22,O=C(CSc1nnc(-c2ccccc2)n1Cc1ccco1)NCc1ccc2c(c1)OCO2,"inconclusive [inhibitor, single point]"
23,CC(=O)Nc1ccc2c(c1)nc1n2CCOC1,inactive
24,O=c1c2c(-c3ccccc3)csc2nc2c3ccccc3c(NCCN3CCOCC3)nn12,"inconclusive [inhibitor, partial curve]"
25,CC1CCC/C(=N\NC(=O)COc2ccccc2Cl)C1 (configuration not stated),inactive
